Out of some 48,000 compounds screened, about 450 (0.94%) were called active. The inconclusive results got no clear call from the source; some entries with a clear call stand among them for comparison. Calls follow the shape of the dose curve; as a rule, active = well fitted inhibition curve with a large enough effect; inconclusive = small, poorly fitted or top-dose-only effect; inactive = no such curve, though single readings can be large or run the other way. Potencies of inconclusive entries are doubtful fits and often do not repeat.
Assay: Primary qHTS for Identification of Small Molecule Inhibitors of Huntingtin Promoter Activity; also: nearly all actives have a fitted effect of over 50% in size
Conditions: HEK293 HTT promoter firefly luciferase reporter (activity 0% = vehicle and -100% = no light), 24 h; activity change, negative = inhibition: at 57.5 µM (top of the series)
How it was run: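 Quantitative HTS used concentration series of up to 57.5 uM final on HEK293 luciferase reporter cells, 24 h at 37 degrees C. Readout was Dual-Glo firefly luminescence.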
Potency is read from the fitted curve at half-maximal effect; tags tell the direction and shape of the fitted curve.

SMILES | Potency | activity change, negative = inhibition
CCCCS(=O)(=O)c1nc(-c2ccc(Br)cc2)cc(-c2ccccc2)c1C#N | inconclusive: 28.2 µM [inhibitor, single point] | –
Cc1cccc(NC(=O)CCc2c(C)nc3c(c(C)nn3C(C)(C)C)c2C)c1C | inconclusive: 35.5 µM [inhibitor, single point] | –
COc1cccc(Nc2c(C(N)=O)cnc3c(C)cc(S(=O)(=O)c4cccc(C(=O)N(C)C)c4)cc23)c1 | – | inactive: -15.4% [at 25.2 µM]
CCSc1nn(CC(=O)Nc2ccc(C(=O)OC)cc2)c(N)c1S(=O)(=O)c1ccc(C)cc1 | inconclusive: 39.8 µM [inhibitor, partial curve, poor fit] | –
COC(=O)c1cc(NC(=O)c2ccc3c(c2)NC(=O)c2ccccc2S3)cc(C(=O)OC)c1 | – | inactive: -19.8%
Fc1ccccc1N1CCN(c2ncc3c(n2)CCN(Cc2cc(Br)cs2)C3)CC1 | inconclusive: 17.8 µM [inhibitor, partial curve, poor fit] | –
Cn1nnc2c(N3CCN(c4cccc(C(F)(F)F)c4)CC3)ncnc21 | inconclusive: 39.8 µM [inhibitor, single point] | –
COc1ccc(OC)c(CNC(=O)CN2CC(C)Sc3ccccc32)c1 (configuration not stated) | inconclusive: 39.8 µM [inhibitor, single point] | –
CCOc1cccc(C(=O)Nc2ccc(S(=O)(=O)N(Cc3ccccc3)c3ccccc3)cc2)c1 | inconclusive: 14.1 µM [inhibitor, partial curve, poor fit] | –
Cc1ccc(Cc2nc3ccccc3nc2SCC(=O)NCCC(C)C)cc1 | – | inactive: 0.0221%
Cc1ccc(Cc2c(C)nc3nc(SCC(=O)NC(C)c4ccccc4)nn3c2C)cc1 (configuration not stated) | inconclusive: 15.8 µM [inhibitor, partial curve, poor fit] | –
COc1ccc(S(=O)(=O)c2nnn(-c3cc(Cl)c(OC)cc3OC)c2C)cc1 | inconclusive: 22.4 µM [inhibitor, single point] | –
Cc1ccc(CN2CCC(CNc3ncnc4onc(-c5ccc(F)cc5)c34)CC2)cc1 | – | inactive: -21.1%
CC(C)Oc1cc(Nc2nc(N[C@@H](C)c3ccc(F)cn3)ncc2Cl)[nH]n1 | inconclusive: 10.9 µM [inhibitor, partial curve, poor fit] | –
COc1ccc(OC)c(NC(=O)CN(C)S(=O)(=O)c2ccc(C(=O)N3CCOCC3)s2)c1 | inconclusive: 10 µM [inhibitor, partial curve, poor fit] | –
Cc1ccc(Cl)cc1NC(=O)C(C)n1nnc2sc3c(c2c1=O)CCCC3 (configuration not stated) | – | inactive: 11.2%
CCOc1ccc(NC(=O)CN2C(=O)C(c3ccccc3)=NC23CCC(C)CC3)cc1 (configuration not stated) | inconclusive: 31.6 µM [inhibitor, single point] | –
CCOC(=O)c1ccc(CN(Cc2ccc(F)cc2)S(=O)(=O)c2cc(C(=O)Nc3cccc(C(F)(F)F)c3)ccc2F)cc1 | inconclusive: 35.5 µM [inhibitor, single point] | –
CCCN1C(C(=O)c2ccccc2)=C(OC(=O)COc2ccccc2)c2ccccc2S1(=O)=O | inconclusive: 31.6 µM [inhibitor, partial curve, poor fit] | –

SMILES | Potency | activity change, negative = inhibition
CC(C)CS(=O)(=O)c1oc(-c2ccc(F)cc2)nc1S(=O)(=O)c1ccccc1 | inconclusive: 28.2 µM [inhibitor, single point] | –
Cc1nc(NC(=O)N2CCC[C@@H]2C(N)=O)sc1-c1ccnc(C(C)(C)C(F)(F)F)c1 | – | inactive: -22.3%
CSc1ccc(CCNC(=O)c2cnn(-c3ccccc3)c2-n2cccc2)cc1 | inconclusive: 31.6 µM [inhibitor, single point] | –
Cc1cccc(NC(=O)c2cc(S(=O)(=O)N3CCc4ccccc43)ccc2F)c1C | inconclusive: 28.2 µM [inhibitor, partial curve, poor fit] | –
COc1ccc(N2CCN(C(=O)C3CCCN(S(=O)(=O)c4ccc5c(c4)CCCN5C(C)=O)C3)CC2)cc1 (configuration not stated) | inconclusive: 14.1 µM [inhibitor, partial curve, poor fit] | –
COc1ccc(OC)c(-c2cc(C(=O)NCCc3ccccc3)c3c(-c4ccc(C)cc4)[nH]nc3n2)c1 | inconclusive: 11.2 µM [inhibitor, partial curve, poor fit] | –
CCOc1ccccc1NC(=O)c1c(NC(=O)COc2ccccc2)sc2c1CCCCC2 | inconclusive: 14.1 µM [inhibitor, partial curve, poor fit] | –
Cc1ccc(N2C(=O)CSC23C(=O)N(CC(=O)NCCc2ccccc2)c2ccccc23)cc1C (configuration not stated) | inconclusive: 15.8 µM [inhibitor, partial curve] | –
CCOC(=O)c1cc(-c2ccccc2)n(-c2cccc(C(=O)Nc3cccc(F)c3)c2)c1C | inconclusive: 25.1 µM [inhibitor, partial curve] | –
COc1ccc(Cl)cc1NS(=O)(=O)c1cc(Br)cc2c1N(C(=O)C1CC1)CC2 | inconclusive: 7.94 µM [inhibitor, single point] | –
CCOC(=O)N1CCN(c2ncc3c(n2)CC(c2ccccc2O)CC3=O)CC1 (configuration not stated) | inconclusive: 7.94 µM [inhibitor, full curve, poor fit] | –
COc1ccccc1NC(=O)CSc1nnc2c3ccccc3n(C(C)C)c2n1 | inconclusive: 10 µM [inhibitor, partial curve, poor fit] | –
COc1ccc(CCNC(=O)CCc2c(C)nc3cc(-c4ccccc4OC)nn3c2C)c(OC)c1 | inconclusive: 31.6 µM [inhibitor, partial curve, poor fit] | –
Cc1ccc(CNc2ncnc3c2nc2n3CCCC2)cc1 | – | inactive: -10%
CCOC(=O)c1cc(-c2ccccc2)n(CCC(=O)NC2CCCCC2)c1C | inconclusive: 31.6 µM [inhibitor, single point] | –
CCOC(=O)c1ccc(NC(=O)CN2c3ccccc3S(=O)(=O)c3ccccc32)cc1 | inconclusive: 39.8 µM [inhibitor, single point] | –
Cc1noc(C)c1S(=O)(=O)Nc1ccc(C(=O)Nc2ccc(Br)cc2)cc1 | inconclusive: 20 µM [inhibitor, partial curve, poor fit] | –
CCOc1cccc(C(=O)Nc2ccc3oc(-c4cccnc4)nc3c2)c1 | inconclusive: 17.8 µM [inhibitor, single point] | –
CCCCOc1ccc(CNC(=O)c2cc3n(n2)CCCN(Cc2ccc(C)cc2)C3=O)cc1 | active: 25.1 µM | –

SMILES | Potency | activity change, negative = inhibition
Clc1ccc(CCNC(c2nnc(-c3ccccc3)o2)c2ccccc2Cl)cc1 (configuration not stated) | inconclusive: 28.2 µM [inhibitor, single point] | –
Cc1ccc(-c2noc(-c3ccc(N4CCCCC4)c([N+](=O)[O-])c3)n2)cc1 | inconclusive: 28.2 µM [inhibitor, partial curve, poor fit] | –
CNC(=O)COc1ccc(NC(=O)c2ccc(-c3nn(C)c(=O)c4ccccc34)cc2)cc1 | – | inactive: -11.1%
CCn1c(SCc2ccccc2Cl)nc(=O)c2c(C(=O)OC)cc(C3CC3)nc21 | inconclusive: 39.8 µM [inhibitor, single point] | –
NS(=O)(=O)c1ccc(CCNC(=O)c2nc(SCc3ccccc3F)ncc2Cl)cc1 | inconclusive: 35.5 µM [inhibitor, partial curve, poor fit] | –
COc1cccc(C2C(C(=O)Nc3ccccc3OC)=C(C)Nc3nc4ccccc4n32)c1 (configuration not stated) | inconclusive: 39.8 µM [inhibitor, single point] | –
CCOC(=O)c1c(C)oc2nc(C)nc(N3CCN(c4ccccc4)CC3)c12 | inconclusive: 22.4 µM [inhibitor, single point] | –
CCOc1ccccc1CNC(=O)c1ccc2nc(Cc3ccc(OC)cc3)oc2c1 | inconclusive: 25.1 µM [inhibitor, partial curve, poor fit] | –
COc1ccc(N2CCN(C(=O)CCNS(=O)(=O)c3ccc4c(c3)CCN4C(=O)C3CC3)CC2)cc1 | inconclusive: 39.8 µM [inhibitor, partial curve, poor fit] | –
CCc1ccc(NC(=O)CSc2cn(CC(=O)N3CCCC3)c3ccccc23)cc1 | inconclusive: 39.8 µM [inhibitor, single point] | –
c1nc2nc(Nc3ccc(N4CCOCC4)cc3)nc(NC3CCCCC3)c2[nH]1 | inconclusive: 4.85 µM [inhibitor, full curve, poor fit] | –
CCN1CCC(N(Cc2ccc3c(c2)OCO3)C(=O)Nc2cc(Cl)ccc2C(=O)OC)CC1 | – | inactive: -28.4%
CCCOC(=O)c1c(C)oc2c1cc(NS(=O)(=O)c1ccc(OCC)cc1)c1ccccc12 | inconclusive: 2.51 µM [inhibitor, full curve] | –
CCN(C(=O)CCc1nc(-c2ccc(C)cc2)no1)c1cc(C)ccc1C | inconclusive: 35.5 µM [inhibitor, partial curve, poor fit] | –
CCCCN(C)CCCNC(=O)c1ccc2nc(N3CCCCC3)sc2c1 | inconclusive: 0.355 µM [inhibitor, full curve, poor fit] | –
CCc1ccc(-n2c(SC(CC)C(=O)N(CC)CC)nc3n[nH]c(C)c3c2=N)cc1 (configuration not stated) | inconclusive: 15.8 µM [inhibitor, partial curve] | –
CCOCCCNC(=O)C1CCCN(Cc2nc(-c3ccc(CC)cc3)oc2C)C1 (configuration not stated) | inconclusive: 22.4 µM [inhibitor, single point] | –
CCc1ccc(OCC(=O)N(Cc2cccs2)c2ccc(Cl)cc2)cc1 | inconclusive: 31.6 µM [inhibitor, partial curve, poor fit] | –
Cc1ccc(/C=C/c2onc(C)c2S(=O)(=O)N2CCC(C(=O)N3CC(C)Oc4ccccc43)CC2)cc1 (configuration not stated) | inconclusive: 22.4 µM [inhibitor, partial curve, poor fit] | –
